The results in this text go back to patent publication US8470805B2, “Processes for preparing piperazinium salts of KMUP and use thereof” (Kaohsiung Medical University, priority 2009, dated 2013).

Read-outs that look alike come from different tables or passages of the source.

This assay deals with matrix metalloprotease-9 (MMP-9).
Setting [1] is: aerosol 5 mM/30 mins/day, day 21 to 27, OVA, N=6.

Turning to `Cl.Cn1c(=O)c2c(ncn2CCN2CCN(c3ccccc3Cl)CC2)n(C)c1=O` [KMUP-1 HCl salt, 7-[2-[4-(2-chlorobenzene)piperazinyl]ethyl]-1,3-dimethyl xanthine HCl], the “Inhibition (%) of MMP-9 in lung tissues” value (mouse, in vivo) came out at 55 ± 3.5%.

Consider `CC(C)(O)c1ccccc1CCC(SCC1(CC(=O)O)CC1)c1cccc(/C=C/c2ccc3ccc(Cl)cc3n2)c1.Cn1c(=O)c2c(ncn2CCN2CCN(c3ccccc3Cl)CC2)n(C)c1=O` (stereo not drawn) [KMUP-1-Montelukast, KMUP-1-montelukast complex], for which the “Inhibition (%) of MMP-9 in lung tissues” value under setting [1] was 70 ± 5.2%.

In the case of KMUP-1-Cromolyn mono-sodium complex, the “Inhibition (%) of MMP-9 in lung tissues” value under setting [1] came to 60 ± 4.4%.
